In the supplement of paper PMC10338343:
± gives the standard deviation. In all, about 5,500 sequences were measured (“pre-steady-state target cleavage rate”: median about 0.1, highest 2% from about 0.64 on). This is a selection; strong and weak results do not stand in their true shares.

Tested on: MIWI (PIWIL1) piRISC loaded with piRNA #2 (30 nt)
Experiment: pre-steady-state target cleavage rate (min^-1); MIWI and MILI are mouse PIWI proteins and EfPiwi is from a freshwater sponge; tags in brackets are library labels; higher = faster piRNA-guided slicing of the target
Conditions: guide: piRNA #2 5'p-UUAGGUAACCCAGUAGAUCCAGAGGAAUUC; auxiliary factor: 500 nM mouse GTSF1
Method: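 Cleave-'n-Seq: a library of target RNAs (target site embedded in constant flanks, ACAGCATTCCGCGTTAGTGATATCCG... 5' flank; DNA-blocked outside the site) at 0.1 nM was incubated with 1 nM active mouse MILI or MIWI piRISC (synthetic 5'-monophosphorylated piRNA guide) with or without 500 nM mouse GTSF1 at 33 °C for 1 min to 16 h. Uncleaved targets were sequenced and normalised to non-target controls, and the pooled three trials were fitted to a burst-and-steady-state model to give the pre-steady-state cleavage rate (min^-1; k3 is constrained to at most 1e-4). Sequence is the target site only; target names encode pairing extent (gX:gY) and contiguous / 1-mismatch / 2-mismatch / bulge geometry. Fits with R² ≤ 0 are excluded.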

Sequence	pre-steady-state target cleavage rate
CUUAACGUCUGGAUCUACUGGGUUUCCUAA	0.187 ± 0.021
CUUAAGCUCUGGAUCUACGGGUUACCUAA	0.0238 ± 0.0057
GAAUUCCUCUGGAUCUACUGGCGUUACCUAA	0.0102 ± 0.0041
CUUUUGCUCUGGAUCUACUGGGUUACCAAA	0.292 ± 0.036
GUAUUCCUCUGGAUCUACUGCGUUACCUAA	0.267 ± 0.049
CUUAAGGUCUGGAUCUACUGCGUUUCCUAA	0.0557 ± 0.014
CAUUUCCUCUGGAUCUACUGGGUUUCCUAA	0.46 ± 0.066
CAAUUCCUCUGGAUCUACAGGGUUACGUAA	0.298 ± 0.041
CUUAUCCUCUGGUUCUACUGGGUAACCUAA	0.0868 ± 0.016
CUUAAGCUCUAGGAUCUACUGGGUUACCUAA	0.15 ± 0.018
CUAUUCCUCUGGAACUACAGGGUUACCUAA	0.334 ± 0.028
CAAAUCCUCUCGAUCUACUGGGUUACCUAA	0.641 ± 0.05
CUAUUCCUCUGGAUCUACUGGAUUACCUAA	0.334 ± 0.037
CUUAAGGACAGGAUCUACUGGGUUACCAAA	0.0161 ± 0.011
CUUAAGGACAGGAUCUAGUGGGUUACCUAA	0.00774 ± 0.0051
CAAUUCCUCUGGAUCUACUGGCUAACCUAA	0.0107 ± 0.0051
CUUAAGCACAGGAUCUACUGGGUUACCUAA	0.0496 ± 0.011
GAAUUCCUCUGGAUCUACUGCGUUACGUAA	0.474 ± 0.066
CUAAAGCUCUGGAUCUACUGGGUUACCUAA	0.0853 ± 0.018
CUUAACCUCUGGAUCUACUGGGUGUACCUAA	0.129 ± 0.015
CUAUUCCUCUGGAUCUUCUGGGAUACCUAA	0.15 ± 0.022
CUUAACCUCUGGAUCUACUGGGAAUCCUAA	0.0514 ± 0.014
CUUAUCGUCUGGAUCUACUGGGUUACGUAA	0.521 ± 0.088

Sequence	pre-steady-state target cleavage rate
CUUUUCCUCUGGUUCUACUGGGUUAGCUAA	0.306 ± 0.051
GAAUUCCUCUGGAUCUACUGCGUUAGCUAA	0.0176 ± 0.01
CUUAAGCUCUGGAUCUACUGGGUCUACCUAA	0.118 ± 0.013
CUUUUCCACUGGAUGUACUGGGUUACCUAA	0.426 ± 0.039
CUUUUCCUGUGGAUCUACUGCGUUACCUAA	0.399 ± 0.054
CAAUUCCUCUGGAUCUACUGGGUUACCUCAA	0.429 ± 0.047
CUUAAGGUCUGGAUCUACUGGCUUACCAAA	0.0139 ± 0.0087
CUUAUCCUCUGGAUCUACUGGGAAUCCUAA	0.212 ± 0.07
CAAUUCCUCUGGAUCUACAGGGUUACCUUA	0.245 ± 0.026
CUAUUCCUCUGGAUCUACUGGGUUACCAA	0.506 ± 0.067
CUUAAGGACUGGCUCUACUGGGUUACCUAA	0.142 ± 0.051
CAAUUACCUCUGGAUCUACUGGGUUACCUAA	0.39 ± 0.061
CAAUUCCUCUGGAUCUAUGGGUUACCUAA	0.0125 ± 0.0042
CUUAACCUCUGGAUCUACUGGGUUACGAAA	0.146 ± 0.015
CUUUUCCUCUGGUUCUACUGGCUUACCUAA	0.14 ± 0.016
CUUAUCGUCUGGAUCUACUGCGUUACCUAA	0.323 ± 0.041
CUUAAGCUCUGGAUCUACUGGGUUACGAAA	0.112 ± 0.015
CUUAAGGACUGGAACUACUGGGUUACGUAA	0.221 ± 0.076
CUUAAGGUCUGCAUCUACUGGGUUUCCUAA	0.024 ± 0.0062
CUUAAGGACUGGAUCUACUGGAUUACCUAA	0.149 ± 0.049
CUUAUCCUCCUGGAUCUACUGGGUUACCUAA	0.438 ± 0.047
CUUAACCUCAGGAUCUUCUGGGUUACCUAA	0.252 ± 0.036
CUUAACGUCUGGAUCUACAGGGUUACCUAA	0.123 ± 0.0083

Sequence	pre-steady-state target cleavage rate
CUUAUGCUCUCGAUCUACUGGGUUACCUAA	0.349 ± 0.026
CUUAAGCUCUGGAUCAACUGGGAUACCUAA	0.0594 ± 0.0098
CUUAAGCUCUGGAUCUACUGGCUUACCAAA	0.0454 ± 0.014
CUUUUCGUCUGGAUCUACUGGGUUACGUAA	0.459 ± 0.069
CUUAAGCUCUGGGUCUACUGGGUUACCUAA	0.119 ± 0.013
GAAUUCCAGUGGAUCUACUGGGUUACCUAA	0.635 ± 0.046
CUUAAGGUCUCGAUCUACUGGGUUACCAAA	0.135 ± 0.024
GAAUUCCUCUGGUUCUUCUGGGUUACCUAA	0.499 ± 0.065
GAAUUCCUCUGGAUUUACUGGGUUACCUAA	0.425 ± 0.073
CUAUUCCUCUGGAUCUACUGGGUAACCUAA	0.231 ± 0.042
GAAUUCCUCUAGAUCUACUGGGUUACCUAA	0.731 ± 0.05
CUUAAGGUCUGGAUCUACAGGGUUAGCUAA	0.0899 ± 0.021
GAAUUCGUCAGGAUCUACUGGGUUACCUAA	0.374 ± 0.057
CUUUUCCUCUGGAUCUACUGGGUUCACCUAA	0.345 ± 0.042
CUUAUCCUCUGGAUCUACUGGUUUACCUAA	0.269 ± 0.028
CUAUACCUCUGGAUCUACUGGGUAACCUAA	0.304 ± 0.06
CUUAUGCUGUGGAUCUACUGGGUUACCUAA	0.236 ± 0.041
CUUAUCCUCUGGAUCUACUGGCUAACCUAA	0.0104 ± 0.0045
CUUAAGCUCUGGAUCUACUGGGUUAGGAAA	0.0375 ± 0.013
CUUAAGCUCUGGAACUACUGGGUUACGUAA	0.357 ± 0.033
CUUAAGCUCUGGAUCUAGUCGGUUACCUAA	0.00488 ± 0.0048
CUUUACCUCUGGAUCUAGUGGGUUACCUAA	0.0935 ± 0.0082
CUUAAGCUCUGGAUCUACUCCGUUACCUAA	0.0175 ± 0.0067

Sequence	pre-steady-state target cleavage rate
GAAUUGCUCUGGUUCUACUGGGUUACCUAA	0.158 ± 0.041
GAAUUCCUGUGGUUCUACUGGGUUACCUAA	0.313 ± 0.032
CUUAAGGACUGGAUCUACUGGGUUACCUAU [g2:g22:cont:t1U]	0.131 ± 0.046
CUUAACCUCUGGAUCUAGUGGGUUACCUUA	0.0713 ± 0.0073
CUAUUCCUCUGGAUCUAGUGGGUUACCAAA	0.112 ± 0.02
CUUAUACUCUGGAUCUACUGGGUUACCUAA	0.116 ± 0.023
GAAUUCCUCUAGGAUCUACUGGGUUACCUAA	0.348 ± 0.074
CUUAUCCUCUCCUUCUACUGGGUUACCUAA	0.419 ± 0.034
GAAUUCCUCUGGAUCUACUGGGUUAUCCUAA	0.263 ± 0.042
CUUAUCCUCUGGAUCUAAUGGGUUACCUAA	0.172 ± 0.022
CUUAAGGAGUGGAUCUACUGGGUUACCUUA	0.0783 ± 0.016
CUAUUGGUCUGGAUCUACUGGGUUACCUAA	0.355 ± 0.041
CUUAUCCUCGGGAUCUACUGGGUUACCUAA	0.334 ± 0.084
CUAUUCCUCAGGUUCUACUGGGUUACCUAA	0.584 ± 0.05
CUUAAGGAGUGGAUCUACUGGGUUACCCAA	0.0404 ± 0.017
CUAUUCCACUGGAUCUACUGGGUUACCUAA	0.588 ± 0.061
CUUAUCCUCUGGAUCUAGUGGGUUACGUAA	0.212 ± 0.026
CUUAUCCACUGGAUCUACUGGGUUACCAAA	0.348 ± 0.042
GAAUUCCUCUGGAUCUACUGGCUUACGUAA	0.0974 ± 0.024
CUUUUCCUCUGGAUCAACAGGGUUACCUAA	0.191 ± 0.02
CUUUUCCUCUGCAUCUACUCGGUUACCUAA	0.0886 ± 0.011
CUUAAGGAGACCUUCUAGUGCGUUACCUAA	0.00596 ± 0.0031
CUUAAGGAGAGGAUCUACUGGGUUACACUAA	0.00526 ± 0.004
